The other results are listed elsewhere or left out.
Biological target: T1, OsWOX13 (Oryza sativa, UniProt Q5QMM3 1-267)
T1 sequence: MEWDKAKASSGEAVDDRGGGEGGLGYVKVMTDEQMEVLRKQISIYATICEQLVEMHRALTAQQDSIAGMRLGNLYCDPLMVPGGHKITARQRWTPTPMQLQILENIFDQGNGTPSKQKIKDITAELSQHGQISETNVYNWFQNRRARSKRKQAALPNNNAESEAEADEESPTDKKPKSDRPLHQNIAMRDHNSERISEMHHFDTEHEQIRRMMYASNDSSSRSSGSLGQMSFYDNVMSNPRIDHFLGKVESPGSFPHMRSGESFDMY
Assay: protein-binding microarray (RPBM); PBS, 2% BSA, 51.3 ng/ul salmon testes DNA, 50 uM zinc acetate, 200 nM TF, 25 C, 1 h; high values mean tight binding
Conditions: protein: recombinant; tags: N-terminal polyhistidine and DsRed monomer fusion (pET32a); label: CyDye5-dUTP incorporated in the synthesized complementary strand; 3' TTTTT single-stranded linker to array surface; dsDNA, one strand shown
In short: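 Polyhistidine-tagged DsRed fusions of transcription factors, joined at the N-terminus, were expressed in E. coli BL21-CodonPlus and isolated on Ni–NTA. They were incubated at 200 nM for 1 h at 25 °C on a custom Agilent array, double-stranded and BSA-blocked, in PBS with 2% BSA, salmon testes DNA and 50 µM zinc acetate. The binding signal is per-feature fluorescence intensity (arbitrary units) read on an Axon 4000B scanner after washing.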

In order of falling binding signal:
1. GGAGATTGACTAATTGGCGGACCGGTGGGACGGTGATTTTCGGAGTCACCTAGTGCAG  44900 fluorescence intensity (a.u.)
2. CACGCTTGATTAATCATTCTGTAAGGATTATATATACCCCCGGAGTCACCTAGTGCAG  39400 fluorescence intensity (a.u.)
3. GGCGAGAGCTTGATTGAAAGAATTCAGAGGTAGCAGGGACCGGAGTCACCTAGTGCAG  37500 fluorescence intensity (a.u.)
4. TTTTGGGAATTGATTTGATCACAACAAATAGCCTTCGTCTCGGAGTCACCTAGTGCAG  32300 fluorescence intensity (a.u.)
5. ATGTGCTAATGATGGATTAATTACGCTTAATAAATTCGTCCGGAGTCACCTAGTGCAG  28000 fluorescence intensity (a.u.)
6. TTGTAATTAACTAGGCTCAAGATAGATAGACGTCGTCTCTCGGAGTCACCTAGTGCAG  21400 fluorescence intensity (a.u.)
7. GAAGTTGATTATGAGCTCTTGGATCTTTTGGCAGGTGCAACGGAGTCACCTAGTGCAG  19400 fluorescence intensity (a.u.)
8. ACCAGCTTTGATTAGTTAAGGGACGCCGGATATCTGGTTTCGGAGTCACCTAGTGCAG  19200 fluorescence intensity (a.u.)
9. GATTAATTAACCTAATACTGCAAGCCACATGTGTAAGAAACGGAGTCACCTAGTGCAG  18300 fluorescence intensity (a.u.)
10. GTTGTTTACCCATATACCCAGTGGGTATGGGTAAGATTCGCGGAGTCACCTAGTGCAG  17800 fluorescence intensity (a.u.)
11. TAGCTAATACTTAATTAATCACGCGCTAATAGATCGGAACCGGAGTCACCTAGTGCAG  17700 fluorescence intensity (a.u.)
12. AGTTTGTAATAATTAAAACTTAATTACTCATACACTAATACGGAGTCACCTAGTGCAG  16400 fluorescence intensity (a.u.)
13. AGACCAAATGATTTGTTTCATGGTTTTGTGATATTATGGACGGAGTCACCTAGTGCAG  15200 fluorescence intensity (a.u.)
14. TTTTGATAGAATACTGTTGGTAACATCATGTCTAGTTTGTCGGAGTCACCTAGTGCAG  14400 fluorescence intensity (a.u.)
15. AGGTGTACATGATTGTTTGCTTCCTTGCTGCAGCTCGGCGCGGAGTCACCTAGTGCAG  14100 fluorescence intensity (a.u.)
16. TATCTTTAATTAAAATCCCCGTTACAAGCATTATATGCTGCGGAGTCACCTAGTGCAG  12900 fluorescence intensity (a.u.)
17. TCAACGGTGGAGCATGATTGGTTGATCAAATCAAAACACACGGAGTCACCTAGTGCAG  12700 fluorescence intensity (a.u.)
18. AACGGGATAGACATATTAACTGTTCTCTTGCACGAGTATCCGGAGTCACCTAGTGCAG  12200 fluorescence intensity (a.u.)
19. AATAAATAATAATTAATAAGACGAATGATCAAATGCTATACGGAGTCACCTAGTGCAG  12000 fluorescence intensity (a.u.)
20. GCTACTTGCATCAACTAATTGACACTCTGCAGTATCCCGTCGGAGTCACCTAGTGCAG  11600 fluorescence intensity (a.u.)
21. TATTGACATATTTAGATATTTGGTAATTACTATAATATAACGGAGTCACCTAGTGCAG  11300 fluorescence intensity (a.u.)
22. CGAAATTGCTCGTCTGCGGTAGCAATAGCTATGGCAGCGGCGGAGTCACCTAGTGCAG  10800 fluorescence intensity (a.u.)
23. CGAGTTCCATTGATTGCGAGATAGCTCTGTCTGCCATGCACGGAGTCACCTAGTGCAG  10100 fluorescence intensity (a.u.)
24. TAAATGGTCTAATTATAATCTTGTTAAGTACTTTGAGTGTCGGAGTCACCTAGTGCAG  10000 fluorescence intensity (a.u.)
25. AGACAAATTTAGCGTATTAATAGTAACATATTGTTTACAGCGGAGTCACCTAGTGCAG  9250 fluorescence intensity (a.u.)
26. TCCTAATCACCTCGTTATTTAGCCATTCAGACCAAAAGAACGGAGTCACCTAGTGCAG  7680 fluorescence intensity (a.u.)
27. TAGAGGGAGTAATTAATTATGCGCTTATCAGTTGGGAAATCGGAGTCACCTAGTGCAG  7530 fluorescence intensity (a.u.)
28. TTTCAAGGATCATTTGATTAATTACCAAACGTGCCTGATTCGGAGTCACCTAGTGCAG  7380 fluorescence intensity (a.u.)
29. ATTATAATTTATTTTGTTATGAGTTGTTTTATCACTTATACGGAGTCACCTAGTGCAG  7290 fluorescence intensity (a.u.)
30. ACTATAATGAGCAATCTTCAGCGGGCATAGTCCACCCAACCGGAGTCACCTAGTGCAG  6830 fluorescence intensity (a.u.)
31. CACTTGCTAATCACTCTCACTCTCATCTTAGCTTGTCCATCGGAGTCACCTAGTGCAG  6680 fluorescence intensity (a.u.)
32. CAAGATTTTAATAGTAGCGCAATCAATATAAATGTTGATGCGGAGTCACCTAGTGCAG  6600 fluorescence intensity (a.u.)
33. TGGTTAATATGATTATTAGTCAAAAGTTATCGAGTTTAATCGGAGTCACCTAGTGCAG  6570 fluorescence intensity (a.u.)
34. GGATTGGACTGACAGATTCGATTCGTTCGTTCGAAGATGCCGGAGTCACCTAGTGCAG  6320 fluorescence intensity (a.u.)
35. CTGTGTAATTTGGACTGGGTCTGGAGGGCAAGATTGGAAACGGAGTCACCTAGTGCAG  5690 fluorescence intensity (a.u.)
36. TACGTTTAATATTTATAATTAATATTCAAACATCCGATGTCGGAGTCACCTAGTGCAG  5410 fluorescence intensity (a.u.)
37. GATCACTGTAAACTTGAGGTTAATTAGTTCTGCCCTGTGGCGGAGTCACCTAGTGCAG  5310 fluorescence intensity (a.u.)
38. TCTCTATCAATATTATCTATTCAATCATGCAGTTAGAAACCGGAGTCACCTAGTGCAG  5150 fluorescence intensity (a.u.)
39. CCAATCCACAACATAACCATCAATCATTCATTGACGCAAGCGGAGTCACCTAGTGCAG  4680 fluorescence intensity (a.u.)
40. GGATCGCCCATGATGTAATTAAATCACCTGATACTGATAGCGGAGTCACCTAGTGCAG  4200 fluorescence intensity (a.u.)
41. AACGATGACTGCAGGATATTATGTTCCTATTGCAAAGTCTCGGAGTCACCTAGTGCAG  3390 fluorescence intensity (a.u.)
42. CGAAATGACTATCCTGCCCTTCATTTCTTCCCGATCTGTCCGGAGTCACCTAGTGCAG  3210 fluorescence intensity (a.u.)

Source: article PMC7819943, “Rice protein-binding microarrays: a tool to detect cis-acting elements near promoter regions in rice”
